# From ChEMBL document CHEMBL1157539, “Thousands of chemical starting points for antimalarial lead identification” (Nature, 2010)
# Whole data set: some 13,000 compounds, median “IFI” near 4, cut for the highest 2% near 17. This is one part of the list.
# Assay: GSK_TCMDC: Inhibition Frequency Index (IFI). The number of non-kinase HTS assays where a compound showed > 50 % inhibition, expressed as a percentage of the number of such assays in which the compound was tested (-0 is zero)
# Type: functional
row,SMILES,IFI [%]
1,Cn1ncc2c3c(CCN4CCC(NCc5ccc6c(c5)NC(=O)CO6)CC4)c(Cl)cnc3ccc21,4.29
2,O=c1cc(NCCC(CNCc2cc3ccccc3o2)NCc2cc(Br)cc(Br)c2)[nH]c2ccccc12 (stereo not given),8.03
3,O=C(Nc1ccc(-c2cccc(-c3nc4cc(C(F)(F)F)ccc4[nH]3)c2)cc1)c1ccc(=O)[nH]n1,1.79
4,CC(C)(C)c1ccc(CN2CCC(NC(=O)c3ccc(-c4ccccc4F)s3)CC2)cc1,12.3
5,Cc1cc(O)c(CN(C)Cc2ccc3c(c2)OCO3)cc1C(C)C,2.5
6,CNC(=O)c1cnc(Nc2ccc(OCC(O)CN(C)C)cc2)nc1Nc1cccc(OC(C)C)c1 (stereo not given),3.01
7,O=C(Nc1ccc(N2CCCCC2)c(Cl)c1)c1nc[nH]n1,1.61
8,CC(C)OC(=O)c1ccccc1S(N)(=O)=O,0.77
9,CCc1ccc(S(=O)(=O)Nc2ccc(CCN(C)C3CCN(C)CC3)cc2)cc1,4.76
10,Cc1ccc(NC(=O)Nc2ccccc2F)cc1-c1ccc(C(=O)Nc2ccncc2)cc1,26.4
11,COc1ccc(CNC2Cc3ccccc3C2)cc1-c1ccc(S(=O)(=O)NCc2cccnc2)s1,5.56
12,c1cc(-c2ccc(CNC3CC3)cc2)cc(-c2nc3ccccc3[nH]2)c1,2.86
13,FC(F)(F)c1ccc2[nH]c(-c3ccc(-c4cccc(CN5CCN(CCN6CCOCC6)CC5)c4)cc3)nc2c1,5.63
14,O=C(Nc1ccc(SC(F)(F)F)cc1)Nc1ccc(Cl)c(Cl)c1,18.7
15,Cc1ccc2[nH]c(C)cc(=NN=Cc3ccccc3F)c2c1,6.47
16,COc1ccc2nccc(CCN3CC(O)C(CNCc4ccc5c(n4)NC(=O)CS5)C3)c2n1 (stereo not given),4.85
17,O=C(NC12CC3CC(CC(C3)C1)C2)C(=O)c1c[nH]c2ccccc12,0.76
18,COc1ccc2nc(NC(N)=NC(=O)Nc3ccccc3)nc(C)c2c1,0.81
19,O=C(NCc1ccc(F)cc1)Nc1cccc(-c2ccc(-c3nc4cc(F)ccc4[nH]3)cc2)c1,4.92
20,COc1ccc(CC(=O)Nc2ccc(-c3cccc(-c4nc5cccc(C)c5[nH]4)c3)cc2)cc1O,3.51
21,Nc1ncc(-c2ccsc2)c2ccc(-c3cc(NCc4ccccc4)ncn3)cc12,3.13
22,Cn1nc(C(F)(F)F)c(-c2ccc(F)cc2)c1NC(=O)Nc1ccccc1,8.89
23,O=C(Cc1cccc(OCCCN(Cc2cccc(C(F)(F)F)c2Cl)CC(c2ccccc2)c2ccccc2)c1)NCc1ccco1,1.59
24,COc1ccc(Nc2ncc3c(-c4cccc(NC(=O)Cc5cccc(F)c5)c4)c[nH]c3n2)cc1OC,5.8
25,COc1ccc(Cn2c(Nc3cccc(C(F)(F)F)c3)nc3cc(C(=O)NCCN4CCCC4)cnc32)cc1Cl,3.73
